From the supplement of paper PMC3334620
In all, about 33,000 sequences were measured (“E-score (-0.5 to 0.5)”: median about -0.04, highest 2% from about 0.36 on). The list shows a part of the results.

target: T1, Hmlalpha2 (UniProt P0CY09); assay: PBM E-score (8-mer binding enrichment) (E-score (-0.5 to 0.5)); higher = stronger / more preferred TF binding; most listed sequences are background and not binding sites; details: protein concentration: 200 nM; construct: GST-full length
T1 sequence: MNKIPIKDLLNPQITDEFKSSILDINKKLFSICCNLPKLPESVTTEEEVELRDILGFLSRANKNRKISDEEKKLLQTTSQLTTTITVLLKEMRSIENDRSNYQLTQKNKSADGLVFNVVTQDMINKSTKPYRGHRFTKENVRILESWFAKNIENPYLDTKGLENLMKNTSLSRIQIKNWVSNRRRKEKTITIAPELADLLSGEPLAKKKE
Method in brief: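 Bound GST-tagged yeast transcription factors, applied at about 100-200 nM to double-stranded universal all-10-mer Agilent arrays, were detected with fluorescent anti-GST. Scans were normalised with masliner. A modified Wilcoxon-Mann-Whitney statistic, the E-score, was assigned to each ungapped eight-base word pooled with its reverse complement by the Universal PBM Analysis Suite.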

Row | Sequence | PBM E-score
1 | CACCAGGA | -0.239
2 | TACGGTGA | -0.0101
3 | AAGGACTA | -0.0799
4 | CTCTGCCC | -0.109
5 | GCCAGGGC | -0.197
6 | CGCCCTCC | -0.288
7 | AGCGGGCC | -0.243
8 | CGAGGGGC | -0.191
9 | CCCACTCG | -0.187
10 | ACCTTTCC | -0.146
11 | ATTAGTTC | 0.073
12 | AAAAGTTG | 0.0297
13 | TAGGGCCA | -0.13
14 | TAGGCTGA | -0.133
15 | CGCCAATC | -0.0938
16 | CAAACTCA | 0.189
17 | ACCGTCAG | -0.247
18 | CGCAGGAC | -0.159
19 | CATATATG | 0.155
20 | TACTTGGA | 0.255
21 | ATACAGCA | 0.176
22 | GTGACGGA | -0.201
23 | CAGCCGGG | -0.171
24 | CGCGACTA | 0.0239
25 | GGCCCTGA | -0.143

Row | Sequence | PBM E-score
26 | TATGTTAA | 0.459
27 | AATGTCAT | 0.178
28 | AAAAGACT | -0.0487
29 | CGCTCTAA | 0.0196
30 | GACGAGAC | -0.139
31 | TAGAGTCA | -0.178
32 | GTTTTCCA | 0.233
33 | ATGCTCCC | -0.173
34 | ATCGGACG | -0.242
35 | ACTAGCGG | -0.131
36 | GGTGAAGA | -0.202
37 | CAAGGAAA | -0.269
38 | AATCTCGC | 0.132
39 | CTAGCCAG | -0.21
40 | CAGCATTA | 0.109
41 | AAGCACAA | 0.0738
42 | GGCTATAC | 0.0523
43 | AACTTTTG | 0.0612
44 | AGGTGAAC | -0.0916
45 | GAATCCGA | -0.156
46 | GATGTGGA | -0.0421
47 | ACCTAACT | 0.00114
48 | CTTCGTAC | -0.13
49 | ATCATTCC | -0.165
50 | GACCCCCA | -0.381

Row | Sequence | PBM E-score
51 | CCTCAACG | -0.0611
52 | CTACAAAC | 0.172
53 | ACGTGATC | 0.172
54 | ATGTTCGG | 0.0295
55 | CAAACATA | 0.118
56 | AGACCAAA | -0.1
57 | CTATACTA | 0.126
58 | AAGGAGAG | -0.222
59 | GCAATTAA | 0.121
60 | AAACGTAG | 0.205
61 | AAGGACTC | -0.288
62 | AACAGTTG | -0.186
63 | ACCCGCCT | -0.0559
64 | ATTAGCGC | 0.0131
65 | ATCCACTC | 0.00482
66 | TCGAGCCA | -0.0274
67 | AGTGAGGG | -0.316
68 | CGGAAACG | -0.111
69 | CTCCAGTC | -0.29
70 | ACCTTTTG | -0.172
71 | ACGGCATA | 0.0529
72 | GCTATCAC | -0.0124
73 | GTACGCGA | 0.19
74 | TGGCCACA | -0.0398
75 | ACAAATTG | 0.156

Row | Sequence | PBM E-score
76 | CCTGGTTA | -0.0669
77 | ATATCCGG | -0.0407
78 | TCTCAGCA | -0.113
79 | TATTCGGA | 0.121
80 | GAACCGGA | -0.0347
81 | TGGGCGAA | 0.0165
82 | CGACCGAC | -0.00205
83 | AGGATGCA | -0.0473
84 | AGTAATCA | 0.199
85 | ATCCGTTA | 0.214
86 | CAAAGACA | 0.22
87 | GAACGCAC | 0.0864
88 | ACGTCCTA | -0.0289
89 | CCACTCGC | -0.162
90 | TACGCACA | 0.277
91 | CAGTCGGG | -0.0544
92 | CGCTGGGC | -0.206
93 | ACAAATAA | 0.279
94 | CGATCGCA | 0.0423
95 | AGGTCCGC | -0.326
96 | GGACCTGA | -0.235
97 | AAAGCTAA | 0.109
98 | ATGCAGGG | -0.0853
